Data on 78 molecules can be found in article PMC12040169 (PLOS Biology, 2025).

The structures appear in SMILES notation. This is one part of the list.

This test relates to T1, C. trachomatis L2/434/Bu expressing GFP (CTL2-GFP).
T1 construct: L2/434/Bu GFP intracellular growth in HeLa cells
Further details: species or system HeLa; C. trachomatis total inclusion area by high-content imaging, normalised to DMSO. Particulars: total inclusion area; 28.5 h, 10 µM; inhibitor. A digest of the protocol: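 High-content imaging followed the bulk GFP/resorufin measurement: fixed, Hoechst-stained cells were scored for GFP inclusions and host nuclei per well. Total inclusion area and count served as growth proxies, nuclei number as the viability proxy. MIC calculation matched the bulk assay.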
Turning to `CC(=O)Nc1cccc(NC(=O)N2CCN(Cc3ccccc3)CC2)c1` [CBK155643], the “% of control remaining” value was 73.0272.

In the case of `COc1cc2c(cc1OC)C1(CCN(CCCC(F)(F)F)CC1)NC(=O)C2` [CBK039859], the “% of control remaining” value is 72.3856.

In the case of `CCCCn1c(SCc2nc(-c3ccncc3)no2)nc2ccsc2c1=O` [CBK288576], the “% of control remaining” value is listed as 100.695.

As to `Cc1cc(C(=O)C(C)Sc2nnc(N)s2)c(C)n1-c1ccccc1` (stereo not drawn) [CBK297916], the “% of control remaining” value was 95.7039.

Take `N#C/C(=C\c1ccc2noc(-c3ccccc3)c2c1)c1nc(-c2cc3ccccc3oc2=O)cs1` [CBK267269]: the “% of control remaining” value is listed as 98.1864.

As for `CC(C)CNCC1CC(C(=O)N2CCC(Cc3ccccc3)CC2)=NO1` (stereo not drawn) [CBK003718C], the “% of control remaining” value turned out to be 112.808.

For the molecule `CCOC(=O)C1CCCN(c2c(C#N)cnc3ccc(Cl)cc23)C1` (stereo not drawn) [CBK304405], the “% of control remaining” value worked out at 52.6387.

As for `O=C(Nc1ccccc1C(=O)O)c1cc(S(=O)(=O)Nc2cccc([N+](=O)[O-])c2)ccc1Cl` [CBK263234], the “% of control remaining” value was 65.6071.

As to `Cc1cc(NC(=O)c2ccc(S(=O)(=O)N3CCOCC3)cc2)nc2c1c(=O)oc1ccccc12` [CBK291134], the “% of control remaining” value is given as 104.801.

Turning to `O=C(NC(Sc1ncccn1)C(=O)c1ccccc1)c1ccccc1` (stereo not drawn) [CBK025806], the “% of control remaining” value came out at 83.5281.

With `c1ncc(OC2CCNC2)nc1OCCN1CCOCC1` (stereo not drawn) [CBK077311T], the “% of control remaining” value was determined as 105.72.

As for `O=S(=O)(Nc1cccc2[nH]ccc12)c1ccc(F)cc1F` [CBK153546], the “% of control remaining” value came out at 101.74.

With `COC(=O)c1cc(Cl)c2ccccc2n1` [CBK012428], the “% of control remaining” value is 103.188.

On to `CCC(=O)OC1(C(=O)c2ccc(F)cc2)CCN(CCCC(c2ccc(F)cc2)c2ccc(F)cc2)CC1` [CBK025227C], for which the “% of control remaining” value was 35.3446.

With `CN1CCN(c2ccc(/C=c3\sc4nc5ccccc5n4c3=O)cc2[N+](=O)[O-])CC1` [CBK263048], the “% of control remaining” value turned out to be 82.1223.

As to `N#Cc1ccc(Oc2ccc3c(c2)-c2cc(Oc4ccc(C#N)c(C#N)c4)ccc2S3(=O)=O)cc1C#N` [CBK261151], the “% of control remaining” value worked out at 87.174.

For `CC(=O)c1cccc(-c2ccc3c(c2)C(=O)NC2(CCN(C(=O)OC(C)(C)C)CC2)O3)c1` [CBK131969], the “% of control remaining” value is recorded as 77.7349.

In the case of `O=C1c2ccccc2CN1c1nccs1` [CBK113184], the “% of control remaining” value worked out at 95.9635.

Turning to `Cc1onc(-c2ccccc2)c1C(=O)Nc1ccccc1N1CCCNCC1` [CBK038929T], the “% of control remaining” value is on record as 91.6188.

Regarding `COc1ccc(C2c3cc(OC)c(OC)cc3CC(=O)N2c2ccc(C(=O)O)cc2)cc1OC` (stereo not drawn) [CBK296082], the “% of control remaining” value was 91.4407.

On to `COc1ccc(S(=O)(=O)N2CCC(C(=O)Nc3ccccc3SC)CC2)cc1C` [CBK267960], for which the “% of control remaining” value stood at 107.503.

On to `c1ccc2c(c1)nnn2Cc1nnc2sc(-c3cnccn3)nn12` [CBK268393], for which the “% of control remaining” value was found to be 112.362.

With `CC(C)S(=O)(=O)n1c(=O)n(Cc2ccc(S(C)(=O)=O)cc2)c2ccccc21` [CBK106529], the “% of control remaining” value amounted to 97.2004.

Consider `COc1ccc(C(C)C)cc1-c1cn2ccnc2c(N(C)CCN(C)C)n1` [CBK066368], for which the “% of control remaining” value is reported as 144.208.

On to `Cc1cccc([C@@H]2CN(Cc3ccccc3)C[C@]23CCCCC(=O)N3)n1` [CBK283341], for which the “% of control remaining” value worked out at 124.083.

In the case of `O=C(O)CCn1cc(CN2CCOc3ccccc3C2)cn1` [CBK306507], the “% of control remaining” value is recorded as 51.8371.

For the molecule `O=C(O)c1cccc(-c2ccc(/C=C\c3nc(O)c([N+](=O)[O-])c(=O)[nH]3)o2)c1` [CBK267209], the “% of control remaining” value is on record as 79.1188.

In the case of `O=C(Cc1c[nH]cn1)N1CCN(C(=O)c2ccco2)CC1` [CBK144448], the “% of control remaining” value was 95.9333.

With `CC1CCCN(c2ncnc3c2[nH]c2ccccc23)C1` (stereo not drawn) [CBK287948], the “% of control remaining” value was 59.6401.

For `Cc1noc(C2(O)CCN(CCc3ccc(F)c(F)c3)C2)n1` (stereo not drawn) [CBK304753], the “% of control remaining” value is recorded as 101.018.

In the case of `CCOC(=O)Cc1nc2ccccc2[nH]1` [CBK261674], the “% of control remaining” value was determined as 99.4597.

`c1ccc(COc2ccc(-n3cnnn3)cc2)nc1` [CBK288196]: the “% of control remaining” value was found to be 57.7495.

With `N#Cc1ccccc1N1CCN(c2cncc(-c3ccc(F)cc3F)n2)CC1` [CBK065708], the “% of control remaining” value is on record as 74.871.

On to `O=C1N(CCc2ccccc2)CC=CCC12CN(Cc1ccc3[nH]ccc3c1)CCO2` (stereo not drawn) [CBK286130], for which the “% of control remaining” value is recorded as 93.2344.

Take `Cc1ccc(NC(=O)N2CCn3cccc3C2c2cccnc2)cc1` (stereo not drawn) [CBK287733]: the “% of control remaining” value is reported as 94.8119.

With `COc1ccccc1CN1CCc2[nH]c(=S)[nH]c(=O)c2C1` [CBK288495], the “% of control remaining” value is listed as 82.3874.

As for `COc1ccc(CN2CCN(S(C)(=O)=O)CC2)c(OC)c1OC` [CBK074491], the “% of control remaining” value is on record as 81.0946.

As for `Cc1ccc(-c2nnn(CC(=O)N(CCO)C(C(=O)NC3CCCC3)c3ccc(F)cc3)n2)o1` (stereo not drawn) [CBK084756], the “% of control remaining” value came out at 96.5054.

In the case of `CCN(CCCCC1NC(=O)NC1=O)Cc1ccncc1` (stereo not drawn) [CBK143967], the “% of control remaining” value was found to be 100.076.

As for `CCCCc1ccc(C(=O)CSc2nc(N)c(C#N)c(-c3ccc(O)cc3)c2C#N)cc1` [CBK261268], the “% of control remaining” value is given as 88.9262.

As to `Cc1nc2ccccc2nc1CSc1nnc(Cc2ccccc2)n1-c1ccccc1` [CBK268360], the “% of control remaining” value is reported as 99.7022.

Turning to `CCn1c(SCC(=O)Nc2ccc(N3CCOCC3)cc2)nnc1-c1ccncc1` [CBK269765], the “% of control remaining” value was determined as 96.5149.

In the case of `COC(=O)C(CCSC)NC(=O)c1cccs1` (stereo not drawn) [CBK057972], the “% of control remaining” value worked out at 46.4017.

`Cc1ccc(S(N)(=O)=O)cc1NC(=O)c1ccc(S(=O)(=O)N(C)C)cc1` [CBK266050]: the “% of control remaining” value turned out to be 126.243.

For `COc1ccc(C(C)C)cc1-c1cn2ccnc2c(NCc2ccco2)n1` [CBK037269], the “% of control remaining” value is given as 142.604.

Take `O=C(O)c1cccc(NS(=O)(=O)c2ccc(F)cc2F)c1` [CBK155084]: the “% of control remaining” value is reported as 107.702.

Consider `CCOc1ccccc1C(=O)N1CCC(c2cc(C(=O)NC(C)C)c3ccccc3n2)C1` (stereo not drawn) [CBK285918], for which the “% of control remaining” value was found to be 120.489.

Consider `O=C(NCCO)/C(=C\c1ccccc1)NC(=O)c1ccc(I)cc1` [CBK265162], for which the “% of control remaining” value stood at 106.973.

With `Cc1ccc(Cl)cc1-n1cc(-c2ccc(Cl)cc2)nn1` [CBK113045], the “% of control remaining” value stood at 100.629.

Take `S=c1[nH]nc(CN2CCSCC2)n1-c1ccc(Cl)cc1` [CBK013868]: the “% of control remaining” value is 123.223.

As for `CC(=O)N[C@H]1CO[C@H]2[C@@H]1OC[C@@H]2n1nnnc1-c1ccccc1` [CBK289483], the “% of control remaining” value is 95.6221.

As to `OCCN1CC2(CCN(Cc3ncc[nH]3)CC2)c2ccccc21` [CBK126763], the “% of control remaining” value was found to be 108.709.

Turning to `Cc1ccc(C(=O)N2CN(C(=O)CN(C)CCN(C)C)CC2(C)C)cc1` [CBK091460C], the “% of control remaining” value was 105.479.

For `CC(=O)NCCc1nc2ccccc2n1CCOc1ccc(Cl)cc1` [CBK269610], the “% of control remaining” value is 88.2026.

In the case of `CNC(=O)CC1SC(NC2CC3C=CC2C3)=NC1=O` (stereo not drawn) [CBK047491], the “% of control remaining” value stood at 80.6713.

Take `Cc1cc(NS(=O)(=O)c2ccc(NC(=O)CCCOc3ccc(Cl)cc3Cl)cc2)no1` [CBK297145]: the “% of control remaining” value was 25.8354.

As for `COc1ccccc1NC(=O)NC(=O)C1CCN(C)CC1` [CBK034830], the “% of control remaining” value was 86.9128.

`N/C(CS(=O)(=O)Cc1ccc(F)cc1)=N/O` [CBK010956]: the “% of control remaining” value was 39.9522.

`c1cncc(CNc2nccnc2-c2ccsc2)c1` [CBK089314]: the “% of control remaining” value is 88.0518.

Take `O=S(=O)(Nc1cc(OC2CCNCC2)c2occc2c1)c1c(Cl)cccc1Cl` [CBK074989C]: the “% of control remaining” value was 56.3083.

Regarding `c1ccc(COc2ccccc2-c2cc(N3CCN(c4ccccn4)CC3)ncn2)cc1` [CBK037793], the “% of control remaining” value was 100.997.

For the molecule `CC1(C)COC(=O)N1C1CCN(C(=O)CNC(=O)c2cccs2)CC1` [CBK044501], the “% of control remaining” value is recorded as 99.5282.

On to `OCCN1CC2(CCN(CCc3cccc4ccccc34)CC2)c2ccccc21` [CBK137013], for which the “% of control remaining” value came out at 87.0849.

Take `O=C(NCCCn1ccnc1)c1cc(-c2cccc(Br)c2)nc2ccccc12` [CBK265476]: the “% of control remaining” value is 8.937.

On to `Cc1ccc(S(=O)(=O)N=C2NCN(CC(=O)O)CN2)cc1` [CBK261983N], for which the “% of control remaining” value was determined as 86.9761.

Turning to `N#Cc1cccnc1N1CCC(NC(=O)c2cc(Cl)c[nH]c2=O)CC1` [CBK306586], the “% of control remaining” value is listed as 84.9004.

Regarding `O=C(CC1CCN(C(=O)Cc2ccccc2)CC1)Nc1nc2c(s1)CCCCC2` [CBK286001], the “% of control remaining” value stood at 105.518.

`Cn1c(CN2CCN(C(=O)NC3CCCCC3)CC2)nc2cc([N+](=O)[O-])ccc21` [CBK268266]: the “% of control remaining” value amounted to 76.0042.

`Cc1ccc(S(=O)(=O)OC[C@H]2O[C@@H](n3cc(C)c(=O)[nH]c3=O)C[C@H]2O)cc1` [CBK201165]: the “% of control remaining” value amounted to 121.494.

Regarding `Fc1ccc(C2=Nn3cnnc3SC2)c(F)c1` [CBK288078], the “% of control remaining” value is on record as 84.4173.

In the case of `CCOC(=O)c1cccc(NS(=O)(=O)c2ccc(NC(C)=O)cc2)c1` [CBK034349], the “% of control remaining” value stood at 80.4611.

In the case of `COc1ccc2nc(C)cc(N3CCOCC3)c2c1` [CBK066896], the “% of control remaining” value was 97.2249.

Consider `Cn1ncc2c1NC(=O)CC2c1c[nH]nc1-c1ccccc1` (stereo not drawn) [CBK287941], for which the “% of control remaining” value worked out at 61.7765.

As for `COc1ccc(Nc2cc(-c3ccco3)ncn2)cc1OC` [CBK090822], the “% of control remaining” value turned out to be 93.209.

As for `O=C(CNC(=O)OCc1ccccc1)NCC(CCCN1CCN(c2ccccc2)CC1)(c1ccccc1)c1ccccc1` [CBK002293], the “% of control remaining” value is on record as 75.735.

For `Fc1cccc(F)c1-c1cc(Nc2ccc(N3CCOCC3)cc2)ncn1` [CBK037673], the “% of control remaining” value came to 83.411.

Turning to `O=C(CN1C(=O)N2CCCN=C2c2ccccc21)NC1CCCCC1` [CBK284396], the “% of control remaining” value was 81.5774.

As to `Cc1c(Cl)cccc1NC(=S)N1CCC(C(N)=O)(N2CCCCC2)CC1` [CBK264900], the “% of control remaining” value worked out at 105.311.
